Out of some 340,000 compounds screened, about 6,900 (2%) were called active. Cut-off read from the data, not from the text of the source: active = inhibition above about 30%; inactive = below that, where a call was filed. The entries are a selection whose mix differs from that of the whole data set. The source gives no active or inactive call for entries shown without one.
Each compound was assayed against D(2) dopamine receptor (Homo sapiens) (UniProt P14416) (assay: HTS Assay for Allosteric Antagonists of the Human D2 Dopamine Receptor: Primary Screen for Antagonists). Details: HEK293 TREx D2 cells, calcium flux, dopamine EC80; at 10 µM; stronger effect = higher value.
Method in brief: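 Tetracycline-induced HEK293 T-REx cells expressing D2 force-coupled to calcium signalling were dye-loaded, exposed to compound for 180 s, then challenged with an EC80 of dopamine; calcium flux was followed kinetically for a further 180 s.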
Note: 0% is about no effect.

UniProt P14416, sequence (P14416 whole entry, looked up): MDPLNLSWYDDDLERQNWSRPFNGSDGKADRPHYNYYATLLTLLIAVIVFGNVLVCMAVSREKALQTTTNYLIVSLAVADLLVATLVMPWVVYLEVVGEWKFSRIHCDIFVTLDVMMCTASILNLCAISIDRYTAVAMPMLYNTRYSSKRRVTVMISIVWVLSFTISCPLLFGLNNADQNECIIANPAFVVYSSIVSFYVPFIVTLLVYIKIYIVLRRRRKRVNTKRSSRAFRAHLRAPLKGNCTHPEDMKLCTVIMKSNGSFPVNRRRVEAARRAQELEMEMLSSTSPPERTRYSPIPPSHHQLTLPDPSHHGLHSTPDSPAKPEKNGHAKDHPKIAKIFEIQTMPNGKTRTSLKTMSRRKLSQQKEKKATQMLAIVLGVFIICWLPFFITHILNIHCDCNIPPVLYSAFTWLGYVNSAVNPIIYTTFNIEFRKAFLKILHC

Q: For Cc1nn(-c2ccccc2)c2nc(C3CC3)cc(C(=O)NCc3ccccc3Cl)c12, which inhibition is on record?
A: -2.47%

Q: With Cc1ccc(OCC(O)CN2CCN(c3ccccc3)CC2)cc1 (stereo unspecified) as the compound, how does the inhibition read?
A: active: 62.2%

Q: How did the inhibition turn out when Cc1cccc(CNC(=O)c2sc3ncnc(N(C)C4CCCCC4)c3c2C)c1 was run?
A: 17.2%

Q: How did the inhibition turn out when CC(C)Nc1ccc(-c2nc(-c3ccccn3)no2)cc1[N+](=O)[O-] was run?
A: 11%

Q: Which inhibition does the source give for CCOc1ccccc1NC(=O)c1ccc2c(Cl)c3c(nc2c1)CCCC3 here?
A: 21.7%

Q: For COc1ccc(CCNC(=O)COC(=O)C2CC2)cc1, which inhibition is on record?
A: active: 31.3%

Q: COc1cccc(CNc2nc3c(-c4cccc(C)c4)nnn3c3ccccc23)c1 was tested. Which inhibition did it give?
A: -14%

Q: With CCOc1ccc(-c2nnc(SCC(=O)NCCc3ccccc3)nc2-c2ccc(OCC)cc2)cc1 as the compound, how does the inhibition read?
A: 7.74%

Q: How did the inhibition turn out when O=C(OCc1cc(=O)n2nc(-c3cccs3)sc2n1)c1ccccc1Br was run?
A: -4.86%

Q: Which inhibition does the source give for CC(=O)Nc1ccc(NC(=O)CCC(=O)c2ccc(C)cc2)cc1 here?
A: 0.136%

Q: How did the inhibition turn out when Cc1cc(NC(=O)C(C)(C)Oc2ccc(Cl)cc2)cc(-c2nc3ncccc3o2)c1O was run?
A: 7.8%

Q: How did the inhibition turn out when CCN(C(=O)c1cnc(N2CCOCC2)c2ccccc12)c1cc(C)ccc1C was run?
A: -6.25%

Q: Which inhibition does the source give for CC(C)N(Cc1ccccc1)C(=O)CN1C(=O)COc2ccc(S(=O)(=O)N3CCCCCC3)cc21 here?
A: 12.5%

Q: For CC12CCC(=O)N1C(C(=O)N1CCN(c3cccc(Cl)c3)CC1)CS2 (stereo unspecified), which inhibition is on record?
A: active: 70.7%

Q: For COc1ccc(CCNC(=O)c2cc(S(=O)(=O)N3CCCC(C)C3)cn2C)cc1OC (stereo unspecified), which inhibition is on record?
A: 9.18%

Q: With O=C(O)c1ccc2c(c1)N(Cc1ccc(F)cc1Cl)C(=O)c1ccccc1S2 as the compound, how does the inhibition read?
A: 9.28%

Q: For Cc1ccc(S(=O)(=O)NNC(=O)CCC(=O)Nc2ccc(C)c(C)c2)cc1, which inhibition is on record?
A: active: 31.5%

Q: With Cc1ccc(C(=O)CN(C(=O)c2ccc(Cl)cc2)N2C(=O)CCC2=O)cc1 as the compound, how does the inhibition read?
A: active: 30.5%

Q: COc1ccc(NC(=O)CCS(=O)(=O)c2nc(-c3ccc4c(c3)OCO4)cc(C(F)(F)F)n2)c(OC)c1 was tested. Which inhibition did it give?
A: 4.4%

Q: Which inhibition does the source give for CCCS(=O)(=O)N1CCCC(C(=O)NCCCN2CCN(c3ccccc3F)CC2)C1 (stereo unspecified) here?
A: active: 38.1%

Q: For CC(=O)N1c2c(cc(Br)cc2S(=O)(=O)NCc2ccccc2Cl)CC1C (stereo unspecified), which inhibition is on record?
A: -21.7%

Q: Cc1ccc2oc(-c3ccc(NC(=O)c4cccc(F)c4)c(C)c3)nc2c1 was tested. Which inhibition did it give?
A: 13.1%

Q: For COc1cc(Cl)c(NC(=O)CN(C)S(=O)(=O)c2ccc3c(c2)CCCC(=O)N3)c(OC)c1, which inhibition is on record?
A: 5.71%

Q: With COc1cc(NC(=O)N2CCC(CN3CCc4ccccc4C3)CC2)cc(OC)c1 as the compound, how does the inhibition read?
A: -17.9%

Q: For COc1ccc(C(=O)NCC(c2ccco2)N(C)C)cc1S(=O)(=O)NCc1ccc(Cl)cc1 (stereo unspecified), which inhibition is on record?
A: active: 77.7%

Q: For Cc1ccc(-c2nnc(Nc3cccc(O)c3)c3ccccc23)cc1S(=O)(=O)N1CCCCC1, which inhibition is on record?
A: -6.99%

Q: Which inhibition does the source give for CCOc1ccc(OCC)c(NC(=O)c2csc3c2CCCC3)c1 here?
A: 2.74%

Q: COc1ccccc1NC(=O)c1oc2ccccc2c1NC(=O)COc1ccccc1OC was tested. Which inhibition did it give?
A: 0.0538%

Q: For COc1ccc(Cl)cc1NC(=O)CSc1nc(=O)[nH]c2c1CCCC2, which inhibition is on record?
A: 17%

Q: Which inhibition does the source give for CCOc1ccc(NC(=O)Cn2cc(C(=O)c3ccccc3)c(=O)c3cc4c(cc32)OCO4)cc1 here?
A: -3.18%

Q: With Cc1ccc(Cn2c(=O)n(-c3ccc(C)c(C)c3)c(=O)c3c(C)c(C)sc32)cc1 as the compound, how does the inhibition read?
A: -3.03%

Q: How did the inhibition turn out when CCOC(=O)c1c(C)[nH]c(C)c1S(=O)(=O)N1CCC(C(=O)NCc2ccc(N(C)C)cc2)CC1 was run?
A: -0.325%

Q: With CN(C)C1(CNC(=O)COc2ccc(C(C)(C)C)cc2)CCCCC1 as the compound, how does the inhibition read?
A: 3.81%

Q: COc1ccccc1OCC(=O)Nc1c(C(=O)c2ccc(C)cc2)oc2ccccc12 was tested. Which inhibition did it give?
A: 12%

Q: How did the inhibition turn out when O=C(Nc1ccc2c(c1)OCO2)c1cc(-c2ccc(Cl)cc2)on1 was run?
A: -1.62%

Q: For CCCCCn1c(-c2cccc(C)c2)nc2ccccc21, which inhibition is on record?
A: 7.53%

Q: How did the inhibition turn out when COc1ccccc1CNS(=O)(=O)c1ccc(N2CCCCS2(=O)=O)cc1 was run?
A: 6.12%

Q: COc1ccc(OC)c(CCNC(=O)C(C)n2c(C)c3cnn(-c4ccccc4)c(=O)c3c2C)c1 (stereo unspecified) was tested. Which inhibition did it give?
A: 3.34%

Q: For COc1ccc(Cl)cc1C(=O)Nc1c2c(nn1-c1ccc(Cl)cc1)CS(=O)(=O)C2, which inhibition is on record?
A: 27%

Q: For Cc1cc(C)cc(-n2ccnc(NCc3ccc(F)cc3)c2=O)c1, which inhibition is on record?
A: 25.2%

Q: For COCCCNCCCOc1ccc(C)cc1Br, which inhibition is on record?
A: active: 38.4%

Q: O=C1COc2cc(S(=O)(=O)CCC(=O)N3CCN(c4ccccc4)CC3)c(Cl)cc2N1 was tested. Which inhibition did it give?
A: -16.6%

Q: Which inhibition does the source give for Cc1ccc(S(=O)(=O)NCCc2nnc3ccc(SCC(=O)Nc4ccc(OC(F)(F)F)cc4)nn23)cc1 here?
A: 0.327%

Q: For CCCc1ccc(-c2ccc(C(=O)Oc3ccc(Br)cc3)cc2)nc1, which inhibition is on record?
A: 1.8%

Q: How did the inhibition turn out when CCOc1ccc(NC(=O)Cn2c(=O)c(CNc3ccccc3)cc3cc4c(cc32)OCCO4)cc1 was run?
A: 8.74%

Q: CCCCCn1c(CNC(=O)c2ccc(F)cc2)nc2ccccc21 was tested. Which inhibition did it give?
A: -21.5%

Q: How did the inhibition turn out when CCc1ccc(-n2nc(C)c3c(C(=O)N4CCN(c5cccc(Cl)c5)CC4)cc(C)nc32)cc1 was run?
A: 9.33%

Q: Cc1nn(CC(=O)N2CCN(c3cccc(Cl)c3)CC2)c(=O)c2c1sc1ccccc12 was tested. Which inhibition did it give?
A: 14.1%

Q: Which inhibition does the source give for CCOC(=O)c1ccc(NC(=O)CCc2c(C)nc3c(c(C)nn3C(C)(C)C)c2C)cc1 here?
A: 1.45%

Q: For CC(C)CCNC(=O)c1ccc(Cn2c(SCC(N)=O)nc3ccccc3c2=O)cc1, which inhibition is on record?
A: 14.4%

Q: With CCOc1cc(C(=O)OCc2cc(=O)n3nc(C4CC4)sc3n2)cc(OCC)c1OCC as the compound, how does the inhibition read?
A: -16.3%

Q: How did the inhibition turn out when COc1cc(OC)c(NC(=O)NCc2cccn2Cc2ccccc2)cc1Cl was run?
A: 4.21%

Q: For CCc1ccccc1NC(=O)Cn1c(=O)n(-c2ccc(C)c(C)c2)c(=O)c2oc3ccccc3c21, which inhibition is on record?
A: 4.59%

Q: With COc1ccc(S(=O)(=O)NCCc2sc(-c3cccc(C)c3)nc2C)cc1 as the compound, how does the inhibition read?
A: -1.63%

Q: Which inhibition does the source give for Cc1ccc(CCNC(=O)c2cccc(Nc3nc4ccccc4nc3-n3nc(C)cc3C)c2)cc1 here?
A: 18.4%

Q: With COc1cc(Br)ccc1C1C(C(=O)Nc2ccc(C)cc2C)=C(C)Nc2nnnn21 (stereo unspecified) as the compound, how does the inhibition read?
A: -15.5%

Q: How did the inhibition turn out when CCN(C(=O)c1cc2cc(Br)cc(OC)c2oc1=O)c1ccccc1 was run?
A: 1.15%

Q: For O=C(NC1CCCCCC1)c1ccc(CS(=O)c2ccc(Br)cc2)o1 (stereo unspecified), which inhibition is on record?
A: -2.37%

Q: For O=S(=O)(Nc1ccc(-c2ccc(N3CCCC3)nn2)cc1)c1ccc(OC(F)(F)F)cc1, which inhibition is on record?
A: 3.75%

Q: With COc1cccc(C2c3c(-c4ccccc4O)n[nH]c3C(=O)N2Cc2cccnc2)c1 (stereo unspecified) as the compound, how does the inhibition read?
A: 22.8%

Q: COC(=O)c1ccc(NC(=O)CCN2CCN(c3ccccc3)CC2)cc1 was tested. Which inhibition did it give?
A: active: 50.3%
